PubChem BioAssay AID488969 (Vanderbilt High Throughput Screening Facility, 2010)
The full ranking holds about 110,000 compounds; the median of “z-score” is about -0.1, and the highest 2% start at about 2. The list shows a part of the results. Calls of active or inactive are those of the source.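 How the source made its calls: active means z-score in the third read window above 3 or below -3; inactive means the rest.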

biological target: Metabotropic glutamate receptor 8 (Rattus norvegicus) (UniProt P70579); assay: rat mGluR8 modulators via GIRK flux, primary screen, cell-based, thallium flux, HTS (AID 488969); details: HEK293 rat mGluR8, GIRK (G protein-gated inwardly rectifying potassium channel) thallium flux, FluoZin2; at 10 µM; stronger effect = higher value; submaximal glutamate (EC20) added with thallium
Chain of UniProt P70579 (P70579 whole entry, looked up): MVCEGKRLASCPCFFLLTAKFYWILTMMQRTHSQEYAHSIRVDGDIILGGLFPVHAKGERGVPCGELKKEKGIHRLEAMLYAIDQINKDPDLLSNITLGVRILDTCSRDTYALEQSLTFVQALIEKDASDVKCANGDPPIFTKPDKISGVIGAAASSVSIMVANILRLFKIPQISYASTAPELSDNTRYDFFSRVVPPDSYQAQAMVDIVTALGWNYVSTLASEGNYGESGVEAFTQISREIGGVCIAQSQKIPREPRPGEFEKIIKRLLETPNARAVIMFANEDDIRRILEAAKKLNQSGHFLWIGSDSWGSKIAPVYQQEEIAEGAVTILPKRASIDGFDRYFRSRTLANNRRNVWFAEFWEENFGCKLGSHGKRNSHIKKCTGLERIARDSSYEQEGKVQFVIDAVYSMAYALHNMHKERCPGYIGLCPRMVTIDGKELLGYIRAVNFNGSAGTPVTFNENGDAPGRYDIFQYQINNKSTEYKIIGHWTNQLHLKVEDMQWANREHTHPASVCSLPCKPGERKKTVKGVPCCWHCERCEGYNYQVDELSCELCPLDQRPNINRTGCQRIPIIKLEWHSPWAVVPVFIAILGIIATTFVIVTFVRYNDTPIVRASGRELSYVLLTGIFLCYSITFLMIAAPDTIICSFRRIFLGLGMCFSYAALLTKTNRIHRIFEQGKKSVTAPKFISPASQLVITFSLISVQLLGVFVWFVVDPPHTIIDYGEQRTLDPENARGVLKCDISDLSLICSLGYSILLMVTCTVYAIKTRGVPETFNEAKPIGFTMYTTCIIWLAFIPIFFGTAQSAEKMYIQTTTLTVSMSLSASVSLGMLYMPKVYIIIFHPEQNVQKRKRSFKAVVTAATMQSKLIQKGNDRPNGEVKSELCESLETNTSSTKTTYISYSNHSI

| SMILES | z-score |
| --- | --- |
| CCn1ncc(Br)c1C(=O)Nc1nccs1 | 0.199 |
| CC(=O)Nc1ccc(N2C(=O)C3C4CC(=O)C(c5ccccc54)C3C2=O)cc1 (configuration not stated) | -0.115 |
| O=C(NCC(c1cccnc1)N1CCN(c2ccc(F)cc2)CC1)c1cccc(Cl)c1 (configuration not stated) | 0.0504 |
| Cc1[nH]c2ccccc2c1C(=O)COC(=O)C1CC(=O)N(Cc2ccccc2)C1 (configuration not stated) | -0.363 |
| CC(C)c1ccc(-c2noc(C3CCCN(C(=O)c4ccc(F)cc4F)C3)n2)cc1 (configuration not stated) | -0.983 |
| Cc1ccc(/C=N/N2CCN(Cc3ccc(Cl)cc3)CC2)o1 | -0.259 |
| Cc1ccc(S(=O)(=O)c2cc3ccccc3oc2=Nc2ccc3c(c2)OCO3)cc1 | -0.186 |
| O=c1[nH]c(N2CCOCC2)nc2c1CCCC2 | -0.139 |
| O=C(O)C1C2C=CC(C2)C1C(=O)NCCc1cccc(Cl)c1 (configuration not stated) | active: 6.03 |
| O=c1[nH]c(CSc2nnc(NCCCN3CCOCC3)s2)nc2cc(Cl)ccc12 | 0.0343 |
| O=c1n(S(=O)(=O)c2cccc3cccnc23)c2ccccc2n1S(=O)(=O)c1cccc2cccnc12 | 0.161 |
| CC(C)COC(=O)C1C(=O)CC(C)(O)C(C(=O)OCC(C)C)C1c1cccnc1 (configuration not stated) | -0.358 |
| CCCCOC(=O)n1c(SCC(=O)N(C)C)nc2ccccc21 | 0.293 |
| CC(C)N1CC(C(=O)Nc2nc3ccccc3s2)CC1=O (configuration not stated) | -0.113 |
| CCc1nnc(NC(=O)CN2CCC(O)(c3ccccc3OC)CC2)s1 | -0.0425 |
| CCc1ccc(CN2CCN(S(=O)(=O)Cc3ccccc3)CC2)cc1 | -0.261 |
| CC(C)(C)C1CCC(OCC(O)CN2CCN(c3ccccc3)CC2)CC1 (configuration not stated) | -0.235 |
| CCOC(=O)c1c(N)sc(C(O)(C(F)(F)F)C(F)(F)F)c1-c1ccc(F)cc1 | -0.231 |
| CCc1nc(SCC(=O)Nc2ccnc3ccccc23)n[nH]1 | -0.312 |
| CC1CC(C)CN(C(=O)CSc2nc3ccsc3c(=O)n2Cc2ccccn2)C1 (configuration not stated) | -0.509 |
| COc1cc(/C=C/C(=O)c2ccc(C)cc2)ccc1OCC#N | -0.366 |
| CCCn1c(=O)[nH]c2ccccc21 | -0.219 |
| COC(=O)Nc1ncc(CN2CCc3ccccc3C2)s1 | -0.224 |

| SMILES | z-score |
| --- | --- |
| COc1cccc(C(=O)/C=C/Nc2ccc(S(=O)(=O)Nc3ccc(C(C)=O)cc3)cc2)c1 | 0.284 |
| Cc1cc(S(=O)(=O)N2CCOCC2)ccc1F | -0.199 |
| CCOC(=O)C1=C(C)NC(C)=C(C(=O)OCC)C1c1ccc(Br)o1 | -0.356 |
| CC1CCN(c2nc3c(c(=O)[nH]c(=O)n3C)n2Cc2ccccc2Cl)CC1 | -0.143 |
| O=C(COC(=O)c1cccnc1Nc1cccc(C(F)(F)F)c1)NC1CCS(=O)(=O)C1 (configuration not stated) | -0.275 |
| CCN(CC)c1ncnc2c1[nH]c1ccccc12 | -0.558 |
| CCC(C)N1CCCC1C(=O)Nc1c(C)cc(C)cc1C (configuration not stated) | -0.0125 |
| O=C(COC(=O)c1ccc([N+](=O)[O-])s1)NC(c1ccccc1)c1ccccc1 | -0.115 |
| Nc1cc(Cl)ccc1Oc1ccc(Cl)cc1 | -0.0791 |
| CCn1c(CSc2nc3ccccc3s2)nnc1SCC(=O)c1ccc(O)cc1O | -0.00868 |
| O=C(NNC(=O)c1ccncc1)c1ccncc1 | 0.419 |
| Nc1c2c(nc3sc4c(c13)CCCCC4)CCCCC2 | 0.847 |
| N/C(=N\c1nc2c(c(=O)[nH]1)CCC2)Nc1cccc2ccccc12 | -0.0995 |
| CC1CCc2cc(F)ccc2N1C(=O)C1(C)CC1(Cl)Cl (configuration not stated) | -0.268 |
| O=C(Nc1ccccc1F)c1ccc(COc2ccc(Cl)cc2Cl)o1 | -0.0451 |
| COc1cccc(N2C(=O)C3CCCN3C2c2ccc(N(C)C)cc2)c1 (configuration not stated) | -0.123 |
| COc1ccc(N(C(=O)/C=C/C(=O)Nc2cc(C)on2)C(C(=O)NC2CCCC2)c2ccccc2C)cc1 (configuration not stated) | -1.71 |
| C=CCNC(=O)c1cccn1-c1ccsc1C(=O)OC | 0.0752 |
| CC1=C(C(=O)OC(C)C)C2(O)C(=O)c3ccccc3C2(O)N1 (configuration not stated) | 0.0714 |
| CCCCCn1c(=O)[nH]c2cc(C(=O)NCCCN(CC)CC)ccc2c1=O | 0.842 |
| O=C1c2ccccc2C(=O)N1Cc1nc(-c2cccnc2)no1 | -0.318 |
| CC(C)(C)C1CCC(=NNc2ncc(C(F)(F)F)cc2Cl)CC1 (configuration not stated) | -0.635 |
| CN(CP(=O)(O)C(O)c1ccccc1)S(C)(=O)=O (configuration not stated) | 0.41 |

| SMILES | z-score |
| --- | --- |
| CCCSc1cc(N2CCOCC2)nc(-c2ccccc2Cl)n1 | -0.577 |
| O=C(CSc1ccc(-c2cccs2)nn1)N1CCCCCC1 | 0.551 |
| COc1ccc(CC(=O)NC(C)(C)CC(C)=O)cc1OC | 0.824 |
| CCOC(=O)N1CCN(c2c(NCc3ccccc3OC)c(=O)c2=O)CC1 | -0.574 |
| O=C(Cn1cc(C(=O)C2CC2)c2ccccc21)NC1CCCC1 | 0.162 |
| COc1cc(CNc2ncn[nH]2)cc(Br)c1OC | -0.166 |
| CCCCNC(=O)Nc1ccccc1C(=O)NCc1ccco1 | 0.486 |
| O=C(CCc1ccc(S(=O)(=O)NCCc2ccccc2)cc1)Nc1ccc2c(c1)OCCO2 | -0.104 |
| COC(=O)c1cc(COc2ccc3oc(C)c(C(=O)OC(C)C)c3c2)c(C)o1 | 0.18 |
| CCNc1nc(NCC)nc(SCCOC(=O)Nc2ccccc2)n1 | -0.236 |
| CCn1c2ccccc2c2nc3ccccc3nc21 | -0.636 |
| Cc1nc2ccccc2n1CC(=O)NCCN1CCCC1 | 0.333 |
| C/C(=N\NC(=O)CSCc1ccc(Cl)cc1)c1ccc2c(c1)OCCO2 | -0.46 |
| O=S1CC/C(=N\O)c2ccccc21 (configuration not stated) | -0.139 |
| COc1ccc(C(=O)NCC(c2cccnc2)N2CCN(c3ccc(F)cc3)CC2)cc1OC (configuration not stated) | 0.582 |
| O=C1CC(c2ccco2)Cc2nc(NCC3CCCO3)ncc21 (configuration not stated) | 0.0578 |
| CCn1c(=O)cc(OCC(=O)N2CCCC2)c2ccccc21 | -0.13 |
| O=C(NCc1ccc(F)cc1)c1cc2n(n1)C(C(F)(F)F)CC(C1CC1)N2 (configuration not stated) | -0.33 |
| N#C/C(=C\c1ccc(-c2ccc(F)cc2)o1)C(=O)Nc1nc(-c2cccs2)cs1 | -0.0764 |
| COc1cc(/C=N/NC(=O)c2cccc([N+](=O)[O-])c2)ccc1OCc1ccc(C)cc1 | -0.354 |
| Cc1ccc2nc(NC(=O)Cn3cc4c(n3)CCCCC4)sc2c1 | 0.178 |
| COc1ccc2c(c1OC)C(=O)N1N=C(c3ccc(Br)cc3)CC21 (configuration not stated) | -1.04 |
| CN(C)c1ccc(NC(=S)NCC2CCCO2)cc1 (configuration not stated) | 0.0583 |

| SMILES | z-score |
| --- | --- |
| O=C(CCc1ccccc1)NNC(=O)c1ccco1 | 0.0453 |
| O=c1ccc(Oc2nc(N3CCOCC3)nc(N3CCOCC3)n2)nn1-c1ccccc1 | 0.115 |
| COc1cc(/C(C)=N/NC(=O)Cc2c(C)[nH][nH]c2=O)ccc1O | -0.267 |
| CCOC(=O)C1CCN(C(=O)Nc2cccc(Cl)c2)CC1 | -0.63 |
| COc1ccccc1N1CCN(C(=O)CSc2ccc3c(C)cc(C)nc3n2)CC1 | -0.191 |
| COc1ccccc1N1CCN(CC(=O)N2N=CCC2c2ccccc2)CC1 (configuration not stated) | -0.0236 |
| Cc1cccc(NC(=O)CSc2nnc(CSc3nc(C)cc(C)n3)o2)c1 | 1.21 |
| Cc1ccc(C(C)C)c(OCC(=O)c2c(O)c3ccccc3oc2=O)c1 | 0.32 |
| CCOC(=O)N1CCN(S(=O)(=O)c2ccc(OCC)c(C)c2)CC1 | 0.489 |
| Clc1ccc(-c2nc3ccccc3n2OCc2ccccc2)cc1 | -0.134 |
| Cc1ccccc1NC1=C(Cl)C(=O)OC1OC(=O)c1ccco1 (configuration not stated) | active: -3.39 |
| O=C(CNC(=O)OCc1ccccc1)NC1CCCCCCC1 | -0.0746 |
| CC(=O)N(C)c1ccc(NC(=S)Nc2cccc3ccccc23)cc1 | 0.0902 |
| O=C1Nc2ccccc2C12OCCO2 | -0.0845 |
| CCCOc1ccc(C(=O)NCC(c2cccs2)N(C)C)cc1OC (configuration not stated) | -0.44 |
| Nc1ccccc1NC(=O)c1ccccc1 | -0.999 |
| COC(=O)c1sccc1-c1ccc(C(=O)Nc2ccccc2)o1 | -0.28 |
| O=C(CNc1ccc(Br)cc1)c1ccccc1 | 0.0045 |
| Cc1ccc(-c2nnc(SCC(=O)Nc3ccc(S(=O)(=O)N4CCCCCC4)cc3)o2)cc1 | 0.22 |
| Cn1c(=N)c(S(=O)(=O)c2ccccc2)cc2c(=O)n3ccccc3nc21 | -0.781 |
| COc1cccc(Nc2nc(-c3sc(NC(=O)CC(C)C)nc3C)cs2)c1 | -0.392 |
| Cc1cc(C)cc(C(=O)NCCn2cc(SCC(=O)N3CCOCC3)c3ccccc32)c1 | 0.0769 |
| CCOC(=O)c1c(NC(=O)CN2C(=O)NC3(CCC(C)CC3)C2=O)sc(C)c1-c1ccc(C)cc1 (configuration not stated) | -0.156 |

| SMILES | z-score |
| --- | --- |
| O=C(NC1CCS(=O)(=O)C1)c1ccc(S(=O)(=O)NCC2CCCO2)cc1 (configuration not stated) | -0.226 |
| COc1ccc(C(=O)/C=C/Nc2ccc([N+](=O)[O-])cc2)cc1 | 0.479 |
| CN1CCN(/C=N/c2c(C#N)cnn2-c2ccccc2)CC1 | 0.237 |
| COc1cc2c(cc1NS(=O)(=O)N1CCCC1)oc1ccccc12 | -0.51 |
| O=C(NC(=S)NCCN1CCOCC1)c1cccc(Cl)c1 | -0.0174 |
| COC(=O)C1CCN(C(=O)C(C)Oc2ccc(Cl)cc2Cl)CC1 (configuration not stated) | 0.0998 |
| COc1ccc(/C=N/n2c(N)c(S(=O)(=O)c3cccs3)c3nc4ccccc4nc32)cc1OC | 0.265 |
| Cc1cccnc1-n1c(CCN2C(=O)c3ccccc3C2=O)nc2ccccc2c1=O | -0.234 |
| COc1cccc(CNCCN2CCOCC2)c1OC | -0.124 |
| COc1cccc(C(=O)N/N=C(/c2ccccc2)c2ccccn2)c1 | -0.131 |
| CCCCCCCCSc1n[nH]c(N)n1 | 0.0327 |
| CCOC(=O)c1c(N)sc(C(O)(C(F)(F)F)C(F)(F)F)c1-c1ccccc1 | -0.158 |
| O=C(C1CCC1)N1CCc2cc(S(=O)(=O)NC3CCCC3)ccc21 | 0.055 |
| N#C/C(=C\c1ccc(N2CCOCC2)o1)C(=O)N1CCOCC1 | -0.912 |
| Cc1nn(C)cc1CNC(=O)c1cnn2c(C(F)F)cc(C3CC3)nc12 | 0.198 |
| O=C(CSc1ccccn1)N/N=C/c1cccc([N+](=O)[O-])c1 | 0.531 |
| C=CCn1c(-c2ccoc2)n[nH]c1=S | -0.0638 |
| Cc1cc(C(=O)Nc2c(C)nn(Cc3ccccc3)c2C)on1 | -0.666 |
| CC(=O)c1ccc(NC(=O)CN2C(=O)COc3ccc(Cl)cc32)cc1 | -0.5 |
| O=C(COC(=O)Cc1ccc(S(=O)(=O)N2CCOCC2)s1)Nc1ccc2c(c1)OCO2 | -0.785 |
